The supplement of paper PMC12217912
The list shows a part of the results. The full chains were built here from the parent and the listed change. Values near 0.05 are background.

B1: TEV protease; numbered along this chain (parent)
chain: MGESLFKGPRDYNPISSSICHLTNESDGHTTSLYGIGFGPFIITNKHLFRRNNGTLVVQSLHGVFKVKDTTTLQQHLVDGRDMIIIRMPKDFPPFPQKLKFREPQREERICLVTTNFQTKSMSSMVSDTSCTFPSGDGIFWKHWIQTKDGQCGSPLVSTRDGFIVGIHSASNFTNTNNYFTSVPKNFMELLTNQEAQQWVSGWRLNADSVLWGGHKVFMVKPEEPFQPVKEATQL

Variants of: B1
Assay: raw area under fraction-flipped curve 0-4 h after induction (AUC4h, not background-subtracted), DNA-recorder readout of cleavage of the substrate (dimensionless); higher = more cleavage of the substrate by the protease variant
Conditions: temperature: 34 °C; time window: 0-4 h after rhamnose induction
Protocol: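 In vivo DNA recorder in E. coli TOP10(DE3) ΔrhaA at 34 °C. Each TEVp single-site mutant (parent TEVp 0) is paired with a single-site variant of the 7-mer TEVs (canonical ENLYFQ|S). The substrate sits between flexible linkers in a Bxb1-sfGFP-TEVs-SsrA fusion, so cleavage stabilises Bxb1 and speeds flipping of a recombination array, read by NGS. The value is the raw area under the fraction-flipped curve over 0-4 h after rhamnose induction (AUC4h), with ≥20 reads per time point. It is not background-subtracted; inactive controls average about 0.047.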
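Also: Bxb1 expression induced with 0.2% (w/v) L-rhamnose at OD600 near 0.5, cultures sampled hourly, flipped fraction per protease–substrate barcode pair counted by paired-end Illumina sequencing.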

Variant	area with substrate ENLYCQS	area with substrate ENLYDQS	area with substrate ENLYEQS	area with substrate ENLYGQS	area with substrate ENLYIQS	area with substrate ENLYKQS	area with substrate ENLYLQS	area with substrate ENLYMQS	area with substrate ENLYQQS	area with substrate ENLYRQS	area with substrate ENLYTQS	area with substrate ENLYVQS	area with substrate ENLYWQS	area with substrate ENLYYQS	area with substrate ENLYHQS	area with substrate ENLYNQS	area with substrate ENLYPQS	area with substrate ENLYSQS
MGESLFKGPRDYNPISSSICHLTNESDGHTTSLYGIGFGPFIITNKHLFRRNNGTLVVQSLHGVFKVKDTTTLQQHLVDGRDMIIIRMPKDFPPFPQKLKFREPQREERICLVTTNFQTKSMSSMVSDTSCTFPSGDGIFWKHWIQTKDGRCGSPLVSTRDGFIVGIHSASNFTNTNNYFTSVPKNFMELLTNQEAQQWVSGWRLNADSVLWGGHKVFMVKPEEPFQPVKEATQL [Q151R]	0.0736	0.0654	0.0503	0.0559	0.0974	0.0555	0.0733	0.0574	0.065	0.0598	0.0346	0.0959	0.0574	0.0503				
MGESLFKGPRDYNPISSSICHLTNESDGHTTSLYGIGFGPFIITNKHLFRRNNGTLVVQSLHGVFKVKDTTTLQQHLVDGRDMIIIRMPKDFPPFPQKLKFREPQREERICLVTTNFQTKSMSSMVSDTSCTFPSGDGIFWKHWIQTKDGQCGSPLYSTRDGFIVGIHSASNFTNTNNYFTSVPKNFMELLTNQEAQQWVSGWRLNADSVLWGGHKVFMVKPEEPFQPVKEATQL [V157Y]	0.0715	0.0584	0.0556	0.051	0.0977	0.0655	0.0718	0.0686	0.0502	0.0543	0.0429		0.0567	0.0763	0.0571	0.0624	0.0641	0.0638
MGESLFKGPRDYNPISSSICHLTNESDGHTTSLYGIGFGPFIITNKHLFRRNNGTLVVQSLHGVFKVKDTTTLQQHLVDGRDMIIIRMPKDFPPFPQKLKFREPQREERICLVTTNFQTKSMSSMVSDTSCTFPSGDGIFWKHWIQTKDGQCGSPLVRTRDGFIVGIHSASNFTNTNNYFTSVPKNFMELLTNQEAQQWVSGWRLNADSVLWGGHKVFMVKPEEPFQPVKEATQL [S158R]	0.0484		0.038	0.055			0.0528	0.0387	0.0692	0.0499	0.0557	0.0299		0.039	0.0442	0.0684	0.234	0.044
MGESLFKGPRDYNPISSSICHLTNESDGHTTSLYGIGFGPFIITNKHLFRRNNGTLVVQSLHGVFKVKDTTTLQQHLVDGRDMIIIRMPKDFPPFPQKLKFREPQREERICLVTTNFQTKSMSSMVSDTSCTFPSGDGIFWKHWIQTKDGQCGSPLVSTREGFIVGIHSASNFTNTNNYFTSVPKNFMELLTNQEAQQWVSGWRLNADSVLWGGHKVFMVKPEEPFQPVKEATQL [D161E]	0.062	0.0298	0.0559	0.0606	0.0958	0.0575		0.056	0.0514		0.0729	0.124	0.0627		0.0657	0.0642	0.0617	0.0719
MGESLFKGPRDYNPISSSICHLTNESDGHTTSLYGIGFGPFIITNKHLFRRNNGTLVVQSLHGVFKVKDTTTLQQHLVDGRDMIIIRMPKDFPPFPQKLKFREPQREERICLVTTNFQTKSMSSMVSDTSCTFPSGDGIFWKHWIQTKDGQCGSPLVSTRDGTIVGIHSASNFTNTNNYFTSVPKNFMELLTNQEAQQWVSGWRLNADSVLWGGHKVFMVKPEEPFQPVKEATQL [F163T]	0.0842	0.0697	0.0683	0.063				0.121	0.0598	0.0727		0.111	0.0713	0.0765	0.0732	0.0595	0.0703	
MGESLFKGPRDYNPISSSICHLTNESDGHTTSLYGIGFGPFIITNKHLFRRNNGTLVVQSLHGVFKVKDTTTLQQHLVDGRDMIIIRMPKDFPPFPQKLKFREPQREERICLVTTNFQTKSMSSMVSDTSCTFPSGDGIFWKHWIQTKDGQCGSPLVSTRDGFIVGNHSASNFTNTNNYFTSVPKNFMELLTNQEAQQWVSGWRLNADSVLWGGHKVFMVKPEEPFQPVKEATQL [I167N]	0.0598				0.0563	0.0546	0.0676	0.0522	0.0452		0.0616	0.0592	0.0601	0.0519	0.0593	0.0488	0.0425	
MGESLFKGPRDYNPISSSICHLTNESDGHTTSLYGIGFGPFIITNKHLFRRNNGTLVVQSLHGVFKVKDTTTLQQHLVDGRDMIIIRMPKDFPPFPQKLKFREPQREERICLVTTNFQTKSMSSMVSDTSCTFPSGDGIFWKHWIQTKDGQCGSPLVSTRDGFIVGIHSMSNFTNTNNYFTSVPKNFMELLTNQEAQQWVSGWRLNADSVLWGGHKVFMVKPEEPFQPVKEATQL [A170M]	0.0817	0.0677	0.051	0.0618		0.0056		0.0519					0.0558	0.0426	0.0533			0.0729
MGESLFKGPRDYNPISSSICHLTNESDGHTTSLYGIGFGPFIITNKHLFRRNNGTLVVQSLHGVFKVKDTTTLQQHLVDGRDMIIIRMPKDFPPFPQKLKFREPQREERICLVTTNFQTKSMSSMVSDTSCTFPSGDGIFWKHWIQTKDGQCGSPLVSTRDGFIVGIHSASFFTNTNNYFTSVPKNFMELLTNQEAQQWVSGWRLNADSVLWGGHKVFMVKPEEPFQPVKEATQL [N172F]	0.0594		0.0518		0.0515	0.0615		0.0646				0.0757	0.0443					
MGESLFKGPRDYNPISSSICHLTNESDGHTTSLYGIGFGPFIITNKHLFRRNNGTLVVQSLHGVFKVKDTTTLQQHLVDGRDMIIIRMPKDFPPFPQKLKFREPQREERICLVTTNFQTKSMSSMVSDTSCTFPSGDGIFWKHWIQTKDGQCGSPLVSTRDGFIVGIHSASNWTNTNNYFTSVPKNFMELLTNQEAQQWVSGWRLNADSVLWGGHKVFMVKPEEPFQPVKEATQL [F173W]	0.0794	0.066	0.0756	0.0594			0.0675	0.0652	0.0601	0.0695	0.0691	0.0779	0.0732	0.0613	0.0711	0.059	0.0717	0.079
